{
  "source": "the supplement of paper PMC4604168 (melanoma cell lines)",
  "note": "This is one part of the list. Many values rest on one well or one pass, so single values are uncertain.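 Also: cell number obtained by counting DAPI-stained nuclei in high-throughput microscope images with image analysis software, screen run in 1,536-well plates.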",
  "data": [
    {"system": "IST-MEL1", "assay": "cell count relative to DMSO control; melanoma cells; higher = more viable cells", "settings": "library dose: low library concentration; 72 h", "units": {"cell count": "%"}, "values": [
      {"smiles": "Cc1cc(Nc2cc(N3CCN(C)CC3)nc(Sc3ccc(NC(=O)C4CC4)cc3)n2)n[nH]1", "note": "[Tozasertib] + CC1(C)NC(=O)N(c2ccc([N+](=O)[O-])c(C(F)(F)F)c2)C1=O [nilutamide] (first compound 0.006 µM, partner dose 1 µM)", "cell count": 96.7},
      {"smiles": "CC[C@]1(O)C[C@H]2CN(CCc3c([nH]c4ccccc34)[C@@](C(=O)OC)(c3cc4c(cc3OC)N(C=O)[C@H]3[C@@](O)(C(=O)OC)[C@H](OC(C)=O)[C@]5(CC)C=CCN6CC[C@]43[C@@H]65)C2)C1", "note": "[vincristine] + COc1ccc(Cl)c(Nc2nc3ccccc3nc2NS(=O)(=O)c2cccc(NC(=O)C(C)(C)N)c2)c1 [XL147] (first compound 0.0001 µM, partner dose 0.8 µM)", "cell count": 86.8},
      {"smiles": "N#CC[C@H](C1CCCC1)n1cc(-c2ncnc3[nH]ccc23)cn1", "note": "[ruxolitinib] + CCN(CC)CCNC(=O)c1c(C)[nH]c(/C=C2\\C(=O)Nc3ccc(F)cc32)c1C [sunitinib] (first compound 1 µM, partner dose 0.4 µM)", "cell count": 102},
      {"smiles": "Cc1cc(Nc2cc(N3CCN(C)CC3)nc(Sc3ccc(NC(=O)C4CC4)cc3)n2)n[nH]1", "note": "[Tozasertib] + COc1cc([C@@H]2c3cc4c(cc3[C@@H](O[C@@H]3O[C@@H]5CO[C@@H](C)O[C@H]5[C@H](O)[C@H]3O)[C@H]3COC(=O)[C@H]23)OCO4)cc(OC)c1O [etoposide] (first compound 0.006 µM, partner dose 0.02 µM)", "cell count": 99.4}
    ]}
  ]
}
